Experiment: Indices of humoral immunity (CD20+, IgA, IgM, IgG, CH50, circulating immune complexes) before and after vaccination
Conditions: patients treated with SCV-07 versus patients without immunomodulator and healthy patients
Protocol: This group, which received SCV-07 and hepatitis B vaccine, included thirty-three (33) essentially healthy students from the Chelyabinsk State Medical Academy.
The hepatitis vaccine Engerix-B® produced by SmithKlineBeecham-Biomed (Russia) was administered as a course of 3 doses given at months 0, 1, and 6. Immunological examinations of the subjects were carried out before the first administration of the vaccine and at one month after completion of the course of immunization. All participants were seen by an allergologist-immunologist once during the first three months following vaccine administration. Subjects receiving SCV-07 were examined daily by the allergologist-immunologist. […]
Participants were evaluated to determine levels of leukocytes in peripheral blood, leukocytary formula, the presence of marker specific lymphocytes (CD3, CD4, CD8, CD16, CD95 and CD20), lysosomal activity of neutrophils; oxygen-dependent metabolism with spontaneous and induced hematocrit (HCT) tests, phagocytary function of neutrophils according to the latex particle absorption model; immunoglobulin IgA, IgM, IgG concentrations; total hemolytic activity of complement (CH50) in blood serum and for circulating immune complexes. Titers of antibodies to HBAg in the blood serum were determined by immunoenzyme analysis in paired sera using the test system of Vector-Best, Ltd., Novosibirsk, Russia. […]

N[C@H](CCC(=O)N[C@@H](Cc1c[nH]c2ccccc12)C(=O)O)C(=O)O [SCV-07, γ-D-glutamyl-L-tryptophan]
concentration of CD20+ lymphocytes and IgA, IgM and IgG in the blood: no significant difference

— patent publication US20090074815A1, “Immunomodulator Compounds as Vaccine Enhancers” (SCICLONE PHARMACEUTICALS, INC., priority 2005, published 2009)
